Some of the results follow. Single values are uncertain, as repeats are few or missing.
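Note: cells treated in 1,536-well plates, then fixed and DAPI-stained, with nuclei counted from automated high-throughput microscope images.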

The test system of the test is MeWo. In words: cell count relative to DMSO control; melanoma cells; higher = more viable cells. The following applies: library dose: standard library concentration; 72 h.
The compound `Nc1ncn([C@H]2C[C@H](O)[C@@H](CO)O2)c(=O)n1` [decitabine] + C#Cc1cccc(Nc2ncnc3cc(OCCOC)c(OCCOC)cc23)c1 [erlotinib] (first compound 0.5 µM, partner dose 4 µM) yielded a cell count of 60.1%.

Compound `CC(=O)O[C@@]12CO[C@@H]1C[C@H](O)[C@@]1(C)C(=O)[C@H](O)C3=C(C)[C@@H](OC(=O)[C@H](O)[C@@H](NC(=O)OC(C)(C)C)c4ccccc4)C[C@@](O)([C@@H](OC(=O)c4ccccc4)[C@H]21)C3(C)C` [Docetaxel] + OCc1c[nH]c2ccccc12 [Indole-3-carbinol] (first compound 0.0005 µM, partner dose 4 µM) displayed a cell count of 31.2%.

Compound `CO[C@H]1C[C@@H]2CC[C@@H](C)[C@@](O)(O2)C(=O)C(=O)N2CCCC[C@H]2C(=O)O[C@H]([C@H](C)C[C@@H]2CC[C@@H](OCCO)[C@H](OC)C2)CC(=O)[C@H](C)/C=C(\C)[C@@H](O)[C@@H](OC)C(=O)[C@H](C)C[C@H](C)/C=C/C=C/C=C/1C` [everolimus] + COc1cc(Nc2ncc(F)c(Nc3ccc4c(n3)NC(=O)C(C)(C)O4)n2)cc(OC)c1OC [Tamatinib] (first compound 0.1 µM, partner dose 2 µM) displayed a cell count of 60.5%.

Compound `Nc1ncn([C@H]2C[C@H](O)[C@@H](CO)O2)c(=O)n1` [decitabine] + CN(C)S(=O)(=O)c1ccc2c(c1)/C(=C/c1cc3c([nH]1)CCCC3)C(=O)N2 [SU6656] (first compound 0.5 µM, partner dose 2 µM) displayed a cell count of 55.6%.
